Some of the results follow. Cleavage of a single-stranded DNA pool by Rep nickase domains was read by sequencing (3 µM enzyme, 1 h, 37 °C); shown is the middle of each 90-letter strand. Numbers give uncut DNA relative to the enzyme-free pool, as log2; the lower, the more was cut; hits are not called. Shares of all reads are compared; uncut strands gain when others are lost, and binding without cutting may add a little.
system: T1, Rep nickase domain of banana bunchy top virus; experiment: uncleaved DNA left, log2 of reads against the no-enzyme library (log2 ratio); higher = less cleavage (more negative = more Rep cleavage of the k-mer); sequences stand for … in CTCGTCCG…ACCGGAGA
T1 sequence (residues 1-94, tag not shown): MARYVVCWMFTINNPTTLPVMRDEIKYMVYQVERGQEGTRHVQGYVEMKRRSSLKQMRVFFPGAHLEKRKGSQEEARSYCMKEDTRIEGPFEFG
Experimental: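 A pool of 90-nt single-stranded DNAs with seven random bases just before the constant AC of the nick site (name = the seven bases) was cut by 3 µM recombinant His6-SUMO-tagged Rep nickase domain (300 nM DNA, 50 mM HEPES pH 8.0, 50 mM NaCl, 1 mM MnCl2, 1 h, 37 °C, three replicates). Uncut DNA was amplified and sequenced.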

| Sequence | uncleaved DNA left (log2) |
| --- | --- |
| CACCCTT | -0.168 |
| CTTAGGC | 0.12 |
| TGCTTCT | -0.24 |
| GGAGTAC | 0.0322 |
| GGGATCG | 0.113 |
| TTCTGCT | -0.0561 |
| GATCATT | 0.0805 |
| CTGCCCT | 0.0332 |
| CGACCGA | -0.0777 |
| TGGACAC | 0.0886 |
| ACCTGAG | 0.133 |
| TAGTGTC | -0.06 |
| ACTTATT | -3.52 |
| TGTGGTG | -0.0443 |
| CTGAGAC | -0.124 |
| GGTTGGA | 0.184 |
| CCCCTCT | -0.0502 |
| AATCCGG | 0.0868 |
| AGGACGG | 0.101 |
| TACGAAT | -0.0703 |

| Sequence | uncleaved DNA left (log2) |
| --- | --- |
| CTTCATG | -0.138 |
| ACCATCA | 0.103 |
| GACCCCT | 0.000842 |
| AACATCT | -0.0414 |
| GCGGATC | 0.133 |
| CTATACA | 0.0748 |
| ATAAGTG | 0.0665 |
| CTTAACA | 0.186 |
| CAAAACC | 0.168 |
| GAAATTA | 0.102 |
| GGGGGCT | -0.0125 |
| CTTAATA | 0.187 |
| AAATGGC | 0.0552 |
| TTCACAA | 0.118 |
| TCCGCGG | -0.0257 |
| GATAAAC | 0.066 |
| TAACCTT | -0.156 |
| TTGCGAG | -0.0654 |
| CTGTGGT | 0.0774 |
| GGTGCAG | -0.0759 |
